# Data from the supplement of paper PMC8728848.
# The list shows a part of the results.
# B1: GS14009A-pdi-495-27-495 (Parabacteroides distasonis) (protein)
# chain: FEEVNTDPDSPTDVPTTNLLAYSLYYTSYRLYDRWFAMDEPMTFCGYASKMTYIDESRYNFRTGVQDTNWEYLYRILNNLKDIEKRATFNETPNMLNVSKVMQVHLMQVATDRWRDVPYTDAAKMTDGILQPKYDKQEDIYPGLLATLKEAADGFADGGSDDLGEGDLLFGGDIEKWQRYCNSMRLRLAMRISEVSPALAKETVEEVMGNPTKYPIMESNDDNAFFWWIGTDPNYYEPMADGYRTRKTEYCAADVIVDHMNTREDPRRSSYFQPTKESVEAGEPKYVGYTIGAKANAVASKYSIWGARFFTDLAGFSPYMRVAEPWFCVAEASMLGWNTGISAEDAYNKAVTYSMEENSVSAEDIADYLANAGKFTNDKKQIYYEEWVAMFKQGMEGWSLYRRTGVPDNLYPAPGRPANYSNHNVPPFRSPYPDKERNLNNANCAPFDAEVVDNLWGKQMWWDTRTGVH
# Key:
# Test in all cases: glycan array binding signal (z-score within array); higher = stronger binding
# Conditions in all cases: glycan notation: IUPAC condensed, linker removed
# [1] = biological target: Gal(b1-4)GlcNAc(b1-3)Gal(b1-4)GlcNAc(b1-2)[Gal(b1-4)GlcNAc(b1-3)Gal(b1-4)GlcNAc(b1-6)]Man(a1-6)[Gal(b1-4)GlcNAc(b1-3)Gal(b1-4)GlcNAc(b1-2)Man(a1-3)]Man(b1-4)GlcNAc(b1-4)GlcNAc
# Outline: (§1)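 Glycan array data were curated from 3228 arrays in the Consortium for Functional Glycomics database and kept only where the protein sequence was available. Glycan names were converted to IUPAC-condensed notation, and columns mapping to the same glycan were averaged. The binding signal is a within-array Z-score, averaged across arrays of the same protein sequence at different concentrations or buffers and across linkers. Negative Z-scores can be read as non-binding.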
# [2] = biological target: Gal(b1-4)GlcNAc(b1-3)Gal(b1-4)GlcNAc(b1-2)[Gal(b1-4)GlcNAc(b1-3)Gal(b1-4)GlcNAc(b1-6)]Man(a1-6)[Gal(b1-4)GlcNAc(b1-3)Gal(b1-4)GlcNAc(b1-2)Man(a1-3)]Man(b1-4)GlcNAc(b1-4)[Fuc(a1-6)]GlcNAc
# Outline: as §1
# [3] = biological target: Gal(b1-4)GlcNAc(b1-3)Gal(b1-4)GlcNAc(b1-3)Gal(b1-4)GlcNAc
# Outline: as §1
# [4] = biological target: Gal(b1-4)GlcNAc(b1-3)Gal(b1-4)GlcNAc(b1-3)Gal(b1-4)GlcNAc(b1-2)Man(a1-3)[Gal(b1-4)GlcNAc(b1-3)Gal(b1-4)GlcNAc(b1-3)Gal(b1-4)GlcNAc(b1-2)Man(a1-6)]Man(b1-4)GlcNAc(b1-4)GlcNAc
# Outline: as §1
# [5] = biological target: Gal(b1-4)GlcNAc(b1-3)Gal(b1-4)GlcNAc(b1-3)Gal(b1-4)GlcNAc(b1-2)Man(a1-3)[Gal(b1-4)GlcNAc(b1-3)Gal(b1-4)GlcNAc(b1-3)Gal(b1-4)GlcNAc(b1-2)Man(a1-6)]Man(b1-4)GlcNAc(b1-4)[Fuc(a1-6)]GlcNAc
# Outline: as §1
# [6] = biological target: Gal(b1-4)GlcNAc(b1-3)Gal(b1-4)GlcNAc(b1-3)Gal(b1-4)GlcNAc(b1-2)[Gal(b1-4)GlcNAc(b1-3)Gal(b1-4)GlcNAc(b1-3)Gal(b1-4)GlcNAc(b1-6)]Man(a1-6)[Gal(b1-4)GlcNAc(b1-3)Gal(b1-4)GlcNAc(b1-3)Gal(b1-4)GlcNAc(b1-2)Man(a1-3)]Man(b1-4)GlcNAc(b1-4)[Fuc(a1-6)]GlcNAc
# Outline: as §1
# [7] = biological target: Gal(b1-4)GlcNAc(b1-3)Gal(b1-4)GlcNAc(b1-3)Gal(b1-4)GlcNAc(b1-3)Gal(b1-4)GlcNAc(b1-2)Man(a1-3)[Gal(b1-4)GlcNAc(b1-3)Gal(b1-4)GlcNAc(b1-3)Gal(b1-4)GlcNAc(b1-3)Gal(b1-4)GlcNAc(b1-2)Man(a1-6)]Man(b1-4)GlcNAc(b1-4)GlcNAc
# Outline: as §1
# [8] = biological target: Gal(b1-4)GlcNAc(b1-3)Gal(b1-4)GlcNAc(b1-3)Gal(b1-4)GlcNAc(b1-3)Gal(b1-4)GlcNAc(b1-2)Man(a1-3)[Gal(b1-4)GlcNAc(b1-3)Gal(b1-4)GlcNAc(b1-3)Gal(b1-4)GlcNAc(b1-3)Gal(b1-4)GlcNAc(b1-2)Man(a1-6)]Man(b1-4)GlcNAc(b1-4)[Fuc(a1-6)]GlcNAc
# Outline: as §1
# [9] = biological target: Gal(b1-4)GlcNAc(b1-3)Gal(b1-4)GlcNAc(b1-3)Gal(b1-4)GlcNAc(b1-3)Gal(b1-4)GlcNAc(b1-2)[Gal(b1-4)GlcNAc(b1-3)Gal(b1-4)GlcNAc(b1-3)Gal(b1-4)GlcNAc(b1-3)Gal(b1-4)GlcNAc(b1-6)]Man(a1-6)[Gal(b1-4)GlcNAc(b1-3)Gal(b1-4)GlcNAc(b1-3)Gal(b1-4)GlcNAc(b1-3)Gal(b1-4)GlcNAc(b1-2)Man(a1-3)]Man(b1-4)GlcNAc(b1-4)[Fuc(a1-6)]GlcNAc
# Outline: as §1
# [10] = biological target: Gal(b1-4)GlcNAc(b1-3)Gal(b1-4)GlcNAc(b1-3)Gal(b1-4)GlcNAc(b1-3)Gal(b1-4)GlcNAc(b1-3)Gal(b1-4)GlcNAc(b1-2)Man(a1-3)[Gal(b1-4)GlcNAc(b1-3)Gal(b1-4)GlcNAc(b1-3)Gal(b1-4)GlcNAc(b1-3)Gal(b1-4)GlcNAc(b1-3)Gal(b1-4)GlcNAc(b1-2)Man(a1-6)]Man(b1-4)GlcNAc(b1-4)GlcNAc
# Outline: as §1
# [11] = biological target: Gal(b1-4)GlcNAc(b1-3)Gal(b1-4)GlcNAc(b1-3)Gal(b1-4)GlcNAc(b1-3)Gal(b1-4)GlcNAc(b1-3)Gal(b1-4)GlcNAc(b1-2)Man(a1-3)[Gal(b1-4)GlcNAc(b1-3)Gal(b1-4)GlcNAc(b1-3)Gal(b1-4)GlcNAc(b1-3)Gal(b1-4)GlcNAc(b1-3)Gal(b1-4)GlcNAc(b1-2)Man(a1-6)]Man(b1-4)GlcNAc(b1-4)[Fuc(a1-6)]GlcNAc
# Outline: as §1
# [12] = biological target: Gal(b1-4)GlcNAc(b1-3)Gal(b1-4)GlcNAc(b1-3)Gal(b1-4)GlcNAc(b1-3)Gal(b1-4)GlcNAc(b1-3)Gal(b1-4)GlcNAc(b1-2)[Gal(b1-4)GlcNAc(b1-3)Gal(b1-4)GlcNAc(b1-3)Gal(b1-4)GlcNAc(b1-3)Gal(b1-4)GlcNAc(b1-3)Gal(b1-4)GlcNAc(b1-6)]Man(a1-6)[Gal(b1-4)GlcNAc(b1-3)Gal(b1-4)GlcNAc(b1-3)Gal(b1-4)GlcNAc(b1-3)Gal(b1-4)GlcNAc(b1-3)Gal(b1-4)GlcNAc(b1-2)Man(a1-3)]Man(b1-4)GlcNAc(b1-4)[Fuc(a1-6)]GlcNAc
# Outline: as §1
# [13] = biological target: Gal(b1-4)GlcNAc(b1-3)Gal(b1-4)GlcNAc(b1-3)Gal(b1-4)GlcNAc(b1-3)Gal(b1-4)GlcNAc(b1-3)Gal(b1-4)GlcNAc(b1-3)Gal(b1-4)GlcNAc(b1-2)Man(a1-3)[Gal(b1-4)GlcNAc(b1-3)Gal(b1-4)GlcNAc(b1-3)Gal(b1-4)GlcNAc(b1-3)Gal(b1-4)GlcNAc(b1-3)Gal(b1-4)GlcNAc(b1-3)Gal(b1-4)GlcNAc(b1-2)Man(a1-6)]Man(b1-4)GlcNAc(b1-4)GlcNAc
# Outline: as §1
# [14] = biological target: Gal(b1-4)GlcNAc(b1-3)Gal(b1-4)GlcNAc(b1-3)GalNAc
# Outline: as §1
# [15] = biological target: Gal(b1-4)GlcNAc(b1-3)Gal(b1-4)GlcNAc(b1-3)[Gal(b1-4)GlcNAc(b1-3)Gal(b1-4)GlcNAc(b1-6)]GalNAc
# Outline: as §1
# [16] = biological target: Gal(b1-4)GlcNAc(b1-3)Gal(b1-4)GlcNAc(b1-6)[Gal(b1-3)]GalNAc
# Outline: as §1
# [17] = biological target: Gal(b1-4)GlcNAc(b1-3)Gal(b1-4)[Fuc(a1-3)]GlcNAc(b1-3)Gal(b1-4)[Fuc(a1-3)]GlcNAc
# Outline: as §1
# [18] = biological target: Gal(b1-4)GlcNAc(b1-3)GalNAc
# Outline: as §1
# [19] = biological target: Gal(b1-4)GlcNAc(b1-3)[Fuc(a1-3)GlcNAc(b1-6)]Gal(b1-4)Glc
# Outline: as §1
# [20] = biological target: Gal(b1-4)GlcNAc(b1-3)[Gal(b1-4)GlcNAc(b1-6)]Gal(b1-4)GlcNAc
# Outline: as §1
# [21] = biological target: Gal(b1-4)GlcNAc(b1-3)[GlcNAc(b1-6)]Gal(b1-4)GlcNAc
# Outline: as §1
# [22] = biological target: Gal(b1-4)GlcNAc(b1-6)Gal(b1-4)GlcNAc
# Outline: as §1
# [23] = biological target: Gal(b1-4)GlcNAc(b1-6)GalNAc
# Outline: as §1
# [24] = biological target: Gal(b1-4)GlcNAc(b1-6)[Gal(b1-3)]GalNAc
# Outline: as §1
# [25] = biological target: Gal(b1-4)GlcNAc(b1-6)[Gal(b1-4)GlcNAc(b1-3)]GalNAc
# Outline: as §1
# Gal(b1-4)GlcNAc6P = biological target: Gal(b1-4)GlcNAc6P
# Outline: as §1
# Gal(b1-6)Gal = biological target: Gal(b1-6)Gal
# Outline: as §1
# Gal3S(b1-3)GalNAc = biological target: Gal3S(b1-3)GalNAc
# Outline: as §1
# Gal3S(b1-3)GlcNAc = biological target: Gal3S(b1-3)GlcNAc
# Outline: as §1
# [26] = biological target: Gal3S(b1-3)[Fuc(a1-4)]GlcNAc
# Outline: as §1
# Gal3S(b1-4)Glc = biological target: Gal3S(b1-4)Glc
# Outline: as §1
# Gal3S(b1-4)Glc6S = biological target: Gal3S(b1-4)Glc6S
# Outline: as §1
# Gal3S(b1-4)GlcNAc = biological target: Gal3S(b1-4)GlcNAc
# Outline: as §1
# [27] = biological target: Gal3S(b1-4)[Fuc(a1-3)]Glc6S
# Outline: as §1
# [28] = biological target: Gal3S(b1-4)[Fuc(a1-3)]GlcNAc
# Outline: as §1
# [29] = biological target: Gal3S(b1-4)[Fuc(a1-3)]GlcNAc6S
# Outline: as §1
# Gal3S4S(b1-4)GlcNAc = biological target: Gal3S4S(b1-4)GlcNAc
# Outline: as §1
binder,measurement,setting,value
B1,glycan array binding signal (z-score),[1],10.6
same,glycan array binding signal (z-score),[2],0.552
same,glycan array binding signal (z-score),[3],0.078
same,glycan array binding signal (z-score),[4],1.2
same,glycan array binding signal (z-score),[5],1.14
same,glycan array binding signal (z-score),[6],0.833
same,glycan array binding signal (z-score),[7],0.855
same,glycan array binding signal (z-score),[8],0.445
same,glycan array binding signal (z-score),[9],7.28
same,glycan array binding signal (z-score),[10],-0.227
same,glycan array binding signal (z-score),[11],0.435
same,glycan array binding signal (z-score),[12],3.33
same,glycan array binding signal (z-score),[13],-0.005
same,glycan array binding signal (z-score),[14],-0.063
same,glycan array binding signal (z-score),[15],0.573
same,glycan array binding signal (z-score),[16],-0.044
same,glycan array binding signal (z-score),[17],-0.009
same,glycan array binding signal (z-score),[18],-0.436
same,glycan array binding signal (z-score),[19],-0.221
same,glycan array binding signal (z-score),[20],-0.195
same,glycan array binding signal (z-score),[21],0.092
same,glycan array binding signal (z-score),[22],-0.376
same,glycan array binding signal (z-score),[23],0.393
same,glycan array binding signal (z-score),[24],0.271
same,glycan array binding signal (z-score),[25],-0.351
same,glycan array binding signal (z-score),Gal(b1-4)GlcNAc6P,0.34
same,glycan array binding signal (z-score),Gal(b1-6)Gal,-0.019
same,glycan array binding signal (z-score),Gal3S(b1-3)GalNAc,-0.349
same,glycan array binding signal (z-score),Gal3S(b1-3)GlcNAc,-0.2
same,glycan array binding signal (z-score),[26],0.01
same,glycan array binding signal (z-score),Gal3S(b1-4)Glc,0.684
same,glycan array binding signal (z-score),Gal3S(b1-4)Glc6S,-0.314
same,glycan array binding signal (z-score),Gal3S(b1-4)GlcNAc,-0.006
same,glycan array binding signal (z-score),[27],-0.36
same,glycan array binding signal (z-score),[28],-0.646
same,glycan array binding signal (z-score),[29],-0.381
same,glycan array binding signal (z-score),Gal3S4S(b1-4)GlcNAc,-0.238
